{
  "source": "PubChem BioAssay (Tox21)",
  "note": "Several values for one entry are separate records, joined by “and”; a condition that tells them apart may be missing. Equal values may be shown once. Inconclusive means that the source gave no clear call. Such entries were picked first, then a sample of the others. Potencies beside an inconclusive call are fits to weak or partial responses and may not hold up. Activity calls are given as the source filed them. The call rests on the fitted dose curve; in most records, active means well fitted inhibition curve with a large enough effect in the repeat runs; inconclusive means weak or mixed curves; inactive means flat fitted curve, though single readings scatter. On the % scale 0 is the no-effect control and ±100 the full control effect; potency means the concentration at half of the fitted maximal effect; tags describe the fitted curve by direction and shape.",
  "data": [
    {"target": "Luciferin 4-monooxygenase (Photinus pyralis) (UniProt P08659)", "sequence (P08659 whole entry, looked up)": "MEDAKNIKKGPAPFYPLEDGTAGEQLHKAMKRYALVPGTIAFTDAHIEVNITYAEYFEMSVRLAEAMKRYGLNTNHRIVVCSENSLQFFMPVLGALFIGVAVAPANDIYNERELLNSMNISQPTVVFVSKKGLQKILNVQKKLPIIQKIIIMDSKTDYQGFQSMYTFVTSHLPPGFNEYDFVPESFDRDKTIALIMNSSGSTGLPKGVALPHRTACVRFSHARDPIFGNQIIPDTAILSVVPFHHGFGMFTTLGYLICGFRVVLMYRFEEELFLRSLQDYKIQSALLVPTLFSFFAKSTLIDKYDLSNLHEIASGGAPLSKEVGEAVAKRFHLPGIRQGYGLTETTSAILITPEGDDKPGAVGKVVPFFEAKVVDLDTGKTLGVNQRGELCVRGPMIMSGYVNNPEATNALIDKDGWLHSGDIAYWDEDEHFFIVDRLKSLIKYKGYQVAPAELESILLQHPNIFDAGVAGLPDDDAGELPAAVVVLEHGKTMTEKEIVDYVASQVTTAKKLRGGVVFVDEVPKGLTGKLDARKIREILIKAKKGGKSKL", "test": "qHTS assay to identify small molecule inhibitors of firefly luciferase (AID 1224835); further: nearly all actives have a fitted effect of over 25% in size", "details": "purified P. pyralis luciferase, luminescence inhibition; series mostly up to 115 µM; activity change, negative = inhibition: at the top concentration", "outline": "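Biochemical qHTS: compounds run as interplate titrations against purified firefly enzyme, with D-luciferin and ATP each at its KM concentration. Light output recorded by CCD imaging.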", "values": [
      {"smiles": "C/C=C\\C/C=C/CCCCCCCCOC(C)=O", "activity change, negative = inhibition": "inactive: 0.305%"},
      {"smiles": "O=S1(=O)OC(c2ccc(O)cc2)(c2ccc(O)cc2)c2ccccc21", "Potency": "active: 31.7 µM and active: 17.8 µM and active: 12.3 µM"},
      {"smiles": "c1ccc(CCc2ccccc2)cc1", "Potency": "inconclusive: 79.6 µM [inhibitor, partial curve, poor fit]"}
    ]}
  ]
}
